# Experimental data: publication PMC12136788
# Where a chain is given by its changes, count along the chain named. Some of the results follow.
# T1: UNK ZnF1-3 (human, UniProt Q9C0B0 31-174)
# T1 sequence: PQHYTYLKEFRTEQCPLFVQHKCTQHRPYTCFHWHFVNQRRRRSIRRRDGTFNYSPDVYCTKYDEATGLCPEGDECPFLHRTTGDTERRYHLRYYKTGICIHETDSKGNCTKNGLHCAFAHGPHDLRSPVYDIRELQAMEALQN
# B1: chr14:65392728:65392729:+_ENSG00000258289_ENST00000359118|hu_hu|motif|central (ssRNA)
# RNA: GGGAGUUCUACAGUCCGACGAUCGUAUCUUCGGCUUUGCCGCAUAACAGACACAGCAUGGUAUACUCGAUCAUAGGUAACGGUUUCUUCUCCAUCUUCUUCUUUCAAGGAUUUGUUUGUGAUCAGCAUAAAAUCCCGCUUACUCAACAGAGGAUUGAGCAUCA
# B2: chr6:106728040:106728041:+_ENSMUSG00000013736_ENSMUST00000057578|mus_hu|FALSE|FALSE (ssRNA)
# RNA: GGGAGUUCUACAGUCCGACGAUCAGGAGCCACAUCAAGAUCAUAGAUAAGGUGAAUCAAAUGAUUUACAUGGUUACCAACAAGAAUUUUUUUCAGUUCCACCCAAAUCCUUUCUCCUGAUAUUCCAGCCAAGCCUUUUGCAUUCAACAGAGGAUUGAGCAUCA
# B3: chr3:184044699:184044700:+_ENSG00000114867_ENST00000411531|hu_mus|FALSE|FALSE (ssRNA)
# RNA: GGGAGUUCUACAGUCCGACGAUCACGUCUGUUAUCUGUGUUCUCUGCGGGUAAUGUUUGUUGAAGAGCAGAAAAGCGAUUCAAGGUAGCUGGACGAGUAGCUUCCGAUGCUGUGUCUGAGGGCUUGGCUCCUGAGCCCCCACUCAACAGAGGAUUGAGCAUCA
# B4: chr5:118832277:118832278:+_ENSG00000133835_ENST00000256216|hu_mus|motif|central (ssRNA)
# RNA: GGGAGUUCUACAGUCCGACGAUCUGACGUGGCUGCAGGUGCCGCGUGACUGGUACGGUUUGGUGAGAUUCCUUCUGAAUCGGCCUUAUGUAAAACUUCGACUAUACCACCUGUUGAUUCUUGAAUGGUCUGCGGCUUGCUGGCCAACAGAGGAUUGAGCAUCA
# B5: chr4:144460044:144460045:+_ENSG00000153147_ENST00000283131|hu_mus|hu_hu_hu_mus_False|88_88 (ssRNA)
# RNA: GGGAGUUCUACAGUCCGACGAUCACGGUCCAUAGCCUGAAGAUCAACUUGGGGAUUCCAAUCUGAGUCAUAUAAAAUGACUACAUCAGCAGUUGCAAGAUUGAUGCCCAGACCACCAGCACGUGUGCUUAGCAUAAAUACAAACAACAGAGGAUUGAGCAUCA
# B6: chr6:41757443:41757444:+_ENSG00000214736_ENST00000398881|hu_mus|hu_hu_hu_mus_False|28_88 (ssRNA)
# RNA: GGGAGUUCUACAGUCCGACGAUCGAACCGUGCAGAGGCAACAUCUCGGAAUUCUGCGGGGGAUGGGGGGGCAGUGGGGGGGGGUUCAGGCAAGGAGAGGGAGUCAACCCAUCUGAACACUCAGGUAGGAUCUUGUGGUCACAGCAACAGAGGAUUGAGCAUCA
# B7: chr3:179287964:179287965:+_ENSG00000136518_ENST00000429709|hu_hu|hu_hu_hu_mus_True|58_58 (ssRNA)
# RNA: GGGAGUUCUACAGUCCGACGAUCCUUGAGUGGUGAGAUGGCCUCCAUGUUCUCCCUGGGCACGCGGAGGGCAUUGGUAUCUAUGUAGUAGGUGGGCCCGCCCUGCUUGCCUUUGUCACCAUCAAUCUCCAUCAUUGUACUUCCCAACAGAGGAUUGAGCAUCA
# B8: chr4:148551591:148551592:-_ENSMUSG00000063077_ENSMUST00000060537|mus_hu|mus_mus_mus_hu_False|68_108 (ssRNA)
# RNA: GGGAGUUCUACAGUCCGACGAUCACCUUACAAAAUUAAAUAUCCCUGUAAAUUAGACAAUAAGCAGCAGGUAACAAAGUCUUUGCUUUGGAAUAUGUGCCAGGAAAAGUCAUCUUGUUUUUAGAUCUCAAGAGACAGUUCACACAACAGAGGAUUGAGCAUCA
# B9: chr6:13786967:13786968:-_ENSMUSG00000048216_ENSMUST00000115492|mus_mus|FALSE|FALSE (ssRNA)
# RNA: GGGAGUUCUACAGUCCGACGAUCGGAGGAUAAGGAAACAGCCUCAGUCAAGUCUCAUGAUCUAGAUAUAAGAACAAGGAAAAGAUAGAUCCAUACAUUUUACUGAAAAUGUAAUCCACAAAGAGAUCAGAUCCGAUCUGUGGCCAACAGAGGAUUGAGCAUCA
# B10: 30996462_30996582_998_CDS_ENSMUSG00000027660_ENSMUST00000118470|mouse|control|control (ssRNA)
# RNA: GGGAGUUCUACAGUCCGACGAUCCUGGGAAUAUCGAGCAGAAAAUGCUGCUGGUCCACCCAAAGAGCUCUGACUGCUUAAGUGGAAUUGUGCCAGCGUGUGUUUCAGACUGGGGUUUAAAUUUAAAGUUUCAGGUAGAGAAACCAACAGAGGAUUGAGCAUCA
# B11: chr4:148551591:148551592:-_ENSMUSG00000063077_ENSMUST00000060537|mus_hu|mus_mus_mus_hu_False|28_78 (ssRNA)
# RNA: B8 RNA with U28G, U60G, U71C, G108A, C113G, G116U
# B12: chr7:135612270:135612271:-_ENSG00000105887_ENST00000393085|hu_mus|hu_hu_hu_mus_False|18_18 (ssRNA)
# RNA: GGGAGUUCUACAGUCCGACGAUCGUUUUUUUCUGAGAUGUUAAAUAGUACUUCAGUGGAAAACAAAACUUAACCUUUUAUUAAUGCGUGUUGUACCAAAAGCAGACAUUUUAGCUUGCUUCCUUUAAAAAUAUUAACAUUAAGCAACAGAGGAUUGAGCAUCA
# B13: 97025942_97026400_1522_CDS_ENSG00000121152_ENST00000240423|human|control|control (ssRNA)
# RNA: GGGAGUUCUACAGUCCGACGAUCGUUGAAAUCUGUAGGAAGGGUGGUAGCUCUCCAAUUCUGGUUCUCCAAAGUGGACUUGGUCAGAAUAGUAGCAGCCUUUGUUUUUCUAAAAUAUACAUCAAAGUCAAUAUCAUCUUCAAACAACAGAGGAUUGAGCAUCA
# B14: chr7:7679991:7679992:-_ENSG00000106399_ENST00000396682|hu_hu|hu_hu_hu_mus_False|18_38 (ssRNA)
# RNA: GGGAGUUCUACAGUCCGACGAUCUGGGAUGAAUCUUUUCCAGCUUCCCCACGAAGCACACGGGCCGGUCGAUAUACUGUGGUAACAUGCUGGCGUUGAUGCGCGACUUGGGGAGCUCCAUCAUGUCCUCCAUGAUUCUGCCGCCAACAGAGGAUUGAGCAUCA
# B15: chr18:24050344:24050345:+_ENSMUSG00000024277_ENSMUST00000025127|mus_mus|FALSE|FALSE (ssRNA)
# RNA: GGGAGUUCUACAGUCCGACGAUCUGGCCUGUAGGGUACACACCCUCAAGUCCCCCUUUAGUAUGGAUUCCUUAAUGUGAAUUGGAGGACUUGGGUUGAAGCUCUUACAAGGAGGAAGAGGGAAGAGGCAGGAAGCCUCGUGCCCAACAGAGGAUUGAGCAUCA
# B16: 56791868_56792582_1945_3pUTR_ENSMUSG00000028431_ENSMUST00000030140|mouse|control|control (ssRNA)
# RNA: GGGAGUUCUACAGUCCGACGAUCGAUGAACAAAUCGAACAGGAAUUCCUUCAGAAUUCUUCCAGGGUUCCACAGCCAGAGAAGGUGACUCCCAAAGGUACUUGAGCACCUGGCCAUCAGCCAGCUGUACUGCUAAUGACUUGGCAACAGAGGAUUGAGCAUCA
# B17: chr17:62495851:62495852:-_ENSG00000108654_ENST00000581693|hu_hu|motif|central (ssRNA)
# RNA: GGGAGUUCUACAGUCCGACGAUCUCACUGUACAUUUACUUUUGUGAAAACACUGCCUGCAUUUUCUAGUACAAAAAAAACCGGAAAAUUGUUUCAGGAAUGUAGAGAAAUAUCCAACUUAAAUAGCGAAAAAGUGCACCAUAACAACAGAGGAUUGAGCAUCA
# B18: chr17:65740002:65740003:+_ENSG00000130935_ENST00000581375|hu_hu|hu_hu_hu_mus_False|78_88 (ssRNA)
# RNA: GGGAGUUCUACAGUCCGACGAUCAACAAAUCUUUCUUCCCUGGACGCAAGAGUUCACAUAAAAGAGAAAAAAUAUAUAUCCAUCAAGUUAGGUGUGGUGGCCACACCUUUACUCCCAGCACUUUGGGAGGUGGAUCUCUGAGUCAACAGAGGAUUGAGCAUCA
# B19: chr15:38777322:38777323:+_ENSG00000171262_ENST00000397609|hu_hu|FALSE|FALSE (ssRNA)
# RNA: GGGAGUUCUACAGUCCGACGAUCAGAAAAAAAUGAUUCACAACAACUGCCUACUAAAUACAACUGGAAGUGCCUUUCCCUAUUUUGUAAAAUCGAAUGAAAAACCCACAAAACACAUCCACAGCAAUACAGGUGAGGCAAGGGCAACAGAGGAUUGAGCAUCA
# B20: chr7:141443734:141443735:+_ENSG00000106028_ENST00000265304|hu_mus|FALSE|FALSE (ssRNA)
# RNA: GGGAGUUCUACAGUCCGACGAUCCCCCUUUUUCACAUACUGAUAUGCCACAUCUCUGAGGCCUGGUCGAAACACUGAUAUUCUGUGCCACGUCGUCUUCUGACUAACGUCACCCAUUUGGUAUACUUCACUAUCCCCUGAUCGCAACAGAGGAUUGAGCAUCA
# B21: chr4:95690885:95690886:+_ENSMUSG00000028572_ENSMUST00000156910|mus_mus|mus_mus_mus_hu_False|8_8 (ssRNA)
# RNA: GGGAGUUCUACAGUCCGACGAUCUUUAGAAAAUGUUAAAUACCAUGCUAAAAUAUUUUCAAAGGCUUAUUUUAUUUUACCAGAAGUCACAGGCAAGCAGACACUACAAGAAUAUAUGAAAAUGAAACAACAGUGUAUAACUGUCAACAGAGGAUUGAGCAUCA
# B22: chr13:30959905:30959906:-_ENSMUSG00000021357_ENSMUST00000021785|mus_hu|motif|central (ssRNA)
# RNA: GGGAGUUCUACAGUCCGACGAUCAUGGAUACUUCCAAACAAGUCAGGGGAAGAAACAUCAACAGAGAGAUGUGUAGUAUCGGUAUCUGCAUCAGGCUUGGUGCUCAACUGUUCCAGACAGUAUAUAAAAACCUGCAUUAUAUUCAACAGAGGAUUGAGCAUCA
# Target: T1, UNK ZnF1-3
# Assay: nsRBNS (natural sequence RNA bind-n-seq); RBNS binding buffer (assumed for nsRBNS): 25 mM Tris pH 7.5, 150 mM KCl, 3 mM MgCl2, 0.01% Triton X-100, 500 ug/ml BSA, 20 U/ml SUPERase-In, 4 C; UNK is unkempt and MSI1 is Musashi-1; names of the RNAs are library labels; protein concentration not given here; high values mean tight binding
row,Binder,binding signal
1,B1,0.625 enrichment R
2,B2,1.25 enrichment R
3,B3,0.839 enrichment R
4,B4,0.673 enrichment R
5,B5,1.25 enrichment R
6,B6,1.07 enrichment R
7,B7,0.646 enrichment R
8,B8,1.07 enrichment R
9,B9,1.28 enrichment R
10,B10,1.28 enrichment R
11,B11,1.26 enrichment R
12,B12,0.777 enrichment R
13,B13,1.17 enrichment R
14,B14,0.754 enrichment R
15,B15,0.912 enrichment R
16,B16,0.472 enrichment R
17,B17,0.9 enrichment R
18,B18,0.848 enrichment R
19,B19,2.04 enrichment R
20,B20,0.702 enrichment R
21,B21,2.01 enrichment R
22,B22,1.01 enrichment R
